The whole screen tested about 310,000 compounds, of which about 2,200 (0.71%) showed an effect of 50% or more. Effects have a minus sign here. This is one part of the list.
biological target: human ether-à-go-go-related gene (hERG) potassium channel (human, UniProt Q12809); experiment: primary screen, population patch clamp on CHO cells stably expressing hERG
Sequence (Q12809 whole entry, looked up): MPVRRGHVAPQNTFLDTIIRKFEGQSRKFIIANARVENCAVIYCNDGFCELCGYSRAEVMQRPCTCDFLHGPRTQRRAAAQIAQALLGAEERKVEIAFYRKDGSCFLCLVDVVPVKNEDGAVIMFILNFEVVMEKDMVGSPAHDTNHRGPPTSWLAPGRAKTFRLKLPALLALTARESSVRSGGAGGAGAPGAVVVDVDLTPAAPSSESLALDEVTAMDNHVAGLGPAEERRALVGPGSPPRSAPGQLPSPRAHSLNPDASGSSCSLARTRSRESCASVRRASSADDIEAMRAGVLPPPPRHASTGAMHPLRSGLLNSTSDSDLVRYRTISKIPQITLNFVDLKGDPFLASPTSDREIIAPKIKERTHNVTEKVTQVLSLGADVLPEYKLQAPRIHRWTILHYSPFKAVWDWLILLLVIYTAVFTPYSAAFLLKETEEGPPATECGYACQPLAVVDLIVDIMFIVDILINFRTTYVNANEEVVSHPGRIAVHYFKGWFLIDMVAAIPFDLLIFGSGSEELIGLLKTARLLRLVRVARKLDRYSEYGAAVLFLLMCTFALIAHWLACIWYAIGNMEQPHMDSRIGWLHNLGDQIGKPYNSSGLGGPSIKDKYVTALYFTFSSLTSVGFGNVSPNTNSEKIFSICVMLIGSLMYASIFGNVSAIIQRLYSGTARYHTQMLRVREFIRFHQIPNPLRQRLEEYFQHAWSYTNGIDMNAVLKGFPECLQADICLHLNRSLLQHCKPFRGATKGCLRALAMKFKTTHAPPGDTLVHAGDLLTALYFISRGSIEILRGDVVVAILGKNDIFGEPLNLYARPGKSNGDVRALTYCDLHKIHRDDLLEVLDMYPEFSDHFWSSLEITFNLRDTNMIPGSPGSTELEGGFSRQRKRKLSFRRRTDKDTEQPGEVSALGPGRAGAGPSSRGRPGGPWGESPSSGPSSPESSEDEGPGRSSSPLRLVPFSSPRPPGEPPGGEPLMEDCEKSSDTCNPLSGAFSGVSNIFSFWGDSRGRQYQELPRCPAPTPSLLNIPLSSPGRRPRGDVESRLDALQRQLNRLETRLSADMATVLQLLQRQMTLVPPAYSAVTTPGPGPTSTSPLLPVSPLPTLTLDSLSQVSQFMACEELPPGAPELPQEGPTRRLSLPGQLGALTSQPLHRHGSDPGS

Row | SMILES | hERG current change (%, negative = inhibition) at 1uM [%]
1 | COC(=O)c1ccccc1S(=O)(=O)N1CCC(C(=O)OCC(=O)NC2CCCCC2C)CC1 (stereo not drawn) | 4.02
2 | Cc1noc(-c2ccccc2)c1NC(=O)Nc1ccc(Cl)cc1 | 11.9
3 | COc1ccc(OC)c(CNC(=O)CCCc2cn(C)c3ccccc23)c1 | 10.9
4 | COC(=O)C1=C(c2ccccc2)C[C@@H]2CC[C@H]1N2C(=O)NCc1ccc(F)cc1 | 3.84
5 | CCc1nnc(NC(=O)CSc2ncnc3scc(-c4ccc(C)cc4)c23)s1 | 2.98
6 | COc1ccc(-c2cc3cc(OC)c(OC)cc3cn2)cc1OC.Cl | 10.2
7 | COc1ccc(CCn2c(O)c(/C=N/NC(=O)c3ccncc3)c(=O)[nH]c2=O)cc1OC | 12.1
8 | CCOC(=O)C(CCCCCOc1ccc([N+](=O)[O-])cc1)C(=O)OCC | 3.22
9 | COc1cc(/C=C/[N+](=O)[O-])ccc1OC(=O)c1cc2ccccc2oc1=O | 13.5
10 | Cc1cc(NC(=O)/C=C/C(=O)N(CC(=O)NC2CCCC2)c2ccc(F)cc2)no1 | 6.93
11 | CC1(C)C2CCC(C2)C1(C)NC(=O)CNCc1cccs1.Cl (stereo not drawn) | 11
12 | COC(=O)c1ccc2nccnc2c1 | 7.39
13 | CCOC(=O)Nc1ccc(C(=O)/C=C/c2ccccc2)cc1 | 4.99
14 | c1ccc(-c2noc(CC3CCCCC3)n2)cc1 | 10.6
15 | O=C(CN1CCN(C2CCCCC2)CC1)c1ccc2cc[nH]c2c1 | 8.47
16 | CCc1ccc2oc(C(=O)N3CCN(c4ccccc4OC)CC3)cc(=O)c2c1 | -57.4
17 | CCOc1ccc(N=C2NC(=O)S/C2=C\c2ccc(Cl)cc2)cc1 | 10.4
18 | Cc1ccc(NC(=O)CSc2sc3c(O)cc(=O)[nH]c3c2C#N)c(F)c1 | -4.66
19 | O=C(Nc1nnc(SCCN2CCOCC2)s1)C1CC(=O)N(c2ccc(F)cc2)C1 (stereo not drawn) | 11.5
20 | Cc1ccccc1OCc1nnc(SCC(=O)NCc2ccccc2)n1C | 1.47
21 | Cc1ccc(S(=O)(=O)N(CC(=O)O)c2ccc(Cl)c(C(F)(F)F)c2)cc1 | 7.51
22 | CCOC(=O)C(C)(C)Sc1nc2c(cnn2-c2ccc(F)cc2)c(=O)[nH]1 | 10.4
23 | CCn1c(C2CC(=O)N(c3cc(C)cc(C)c3)C2)nc2ccccc21 (stereo not drawn) | 7.31

Row | SMILES | hERG current change (%, negative = inhibition) at 1uM [%]
24 | CCN(CC)C(=O)c1ccc(NS(=O)(=O)c2ccc3[nH]c(=O)[nH]c3c2)cc1 | 14.1
25 | CC(C)CCNC(=O)C1CC(c2ccccc2C(F)(F)F)=NO1 (stereo not drawn) | -5.2
26 | CSC(=NS(=O)(=O)c1ccccc1)SC | 16.8
27 | Cc1cccc2sc(N3CCN(C(=O)C4COc5ccccc5O4)CC3)nc12 (stereo not drawn) | 0.776
28 | COCCCNC(=O)C(CC(N)=O)NC(=O)OCc1ccccc1 (stereo not drawn) | 8.28
29 | COc1ccc(C(=S)N2CCOCC2)cc1OC(=O)c1cc([N+](=O)[O-])c(C)c([N+](=O)[O-])c1 | 2.21
30 | COc1cc(C(=S)N2CCOCC2)cc(OC)c1OC | 7.25
31 | Clc1cccc(N2CCNCC2)c1Cl | 5.63
32 | O=C(Nc1ccc(N2CCCC2)c(Cl)c1)c1ccc2c(c1)OCCO2 | 14.8
33 | CC(NC(=O)COC(=O)/C(=C/c1cccs1)c1cccs1)c1ccccc1 (stereo not drawn) | 6
34 | COc1ccc(C(=O)NC(=S)Nc2ccc(CN3CCCCC3)cc2)cc1Cl | -0.394
35 | COc1ccc(CN2CCN(C(C)C(=O)N(C)Cc3cccc(F)c3)CC2)cc1OC.O=C(O)C(=O)O (stereo not drawn) | -32
36 | O=C(O)c1cccc(S(=O)(=O)Nc2cc(Cl)ccc2Cl)c1 | 10.1
37 | CC(=O)N1CCN(c2ccc(NC(=O)c3cc(Cl)ccc3Cl)cc2)CC1 | 22.3
38 | CC(=O)c1ccc(NC(=O)CN2CCC(NC(=O)C3CCCCC3)CC2)cc1 | 9.68
39 | CN(C)CCN(C(=O)c1cccs1)c1nc2cc3c(cc2s1)OCCO3.Cl | 7
40 | CCC1CCCCN1C(=O)/C=C/c1ccc2c(c1)OCO2 (stereo not drawn) | 12.6
41 | CC1CCN(CCCn2c(=S)[nH]c3c(sc4ccccc43)c2=O)CC1.Cl | 3.44
42 | O=C(CCOc1ccccc1)Nc1ccc(S(=O)(=O)Nc2ncccn2)cc1 | 6.12
43 | O=C(CCCC(=O)OCC1CCCO1)OCC1CCCO1 (stereo not drawn) | 14
44 | Cc1oc(-c2ccccc2F)nc1CS(=O)(=O)CC(=O)NCCCc1ccccc1 | 5.74
45 | Cn1c(=O)c(=O)n(C)c2cc(S(=O)(=O)N3CCN(c4ccc(F)cc4)CC3)ccc21 | -7.91
46 | Cc1cc(C)cc(-n2ncc3c2CCCC3NC(=O)c2ccccc2N2CCOCC2)c1 (stereo not drawn) | 0.395

Row | SMILES | hERG current change (%, negative = inhibition) at 1uM [%]
47 | O=C(Cc1cccs1)N1CCN(S(=O)(=O)c2ccc(F)c(F)c2)CC1 | 6.65
48 | CCOCCOC(=O)C(C)Sc1n[nH]c(=O)[nH]c1=O (stereo not drawn) | 9.71
49 | Cc1cc(C)c2c(N)c(C(=O)N/N=C/c3ccccc3)sc2n1 | 8.88
50 | Cc1ccc(Oc2c(CO)c(-c3ccccc3)nn2C)cc1 | 18.8
51 | O=C(NCc1ccccc1C(F)(F)F)C1CC(c2cccc(F)c2)=NO1 (stereo not drawn) | 7.08
52 | COc1ccc([C@H]2/C=C\CN(S(=O)(=O)c3ccc(C)cc3)[C@@H](C)C(=O)N2Cc2ccc(F)cc2)cc1 | -9.9
53 | COc1ccc(/C=N\NC(=O)c2c(C)nc3ccc(Br)cn23)cc1 | 12.3
54 | O=C(N/N=C/c1ccc(-c2ccccc2Cl)o1)c1ccccc1 | 12.1
55 | Nc1ccnn1Cc1ccncc1 | 3.93
56 | COc1ccc(CCNC(=O)CN(c2ccc(OC)c(OC)c2)S(=O)(=O)c2ccccc2)cc1OC | 6.64
57 | CCOC(=O)c1cc(C#N)c(Nc2ccc(C)cc2)nc1C(F)(F)F | 12.3
58 | COc1ccc(NC(=O)Nc2ccc(OC)c(OC)c2)c([N+](=O)[O-])c1 | 16
59 | O=C(COC(=O)c1n[nH]c2ccccc12)c1cc(F)ccc1F | 3.18
60 | COc1ccc(CCC(=O)N2CCN(C3CCCCC3)CC2)cc1 | -56.7
61 | CC(=O)c1csc(CS(=O)(=O)c2ccccn2)n1 | 12.9
62 | Cc1c(Cl)cccc1NC(=O)CCC(=O)N/N=C/c1ccc[nH]1 | 6
63 | COc1ccc(-c2csc(NCCc3nc4cc(Cl)c(N5CCCCC5)cc4n3CCOCCO)n2)cc1 | 4.7
64 | Cc1ccc(-c2nn(C)c(=O)c3ccccc23)cc1CNC(=O)c1ccccc1 | 13.4
65 | COc1ccc(NS(=O)(=O)c2csc(C(N)=O)c2)cc1 | 11.5
66 | O=S(=O)(C(=CNc1ccccc1)S(=O)(=O)c1ccccc1)c1ccccc1 | 4.9
67 | COc1ccccc1NC(=O)NC1(C(=O)N2CCN(C)CC2)CCCCC1 | 17.5
68 | CCCc1cc(C(=O)NC2CCCC2)no1 | 5.63
69 | Cc1cc(C(=O)OCC(=O)NC2CC2)c2ccccc2n1 | 8.14

Row | SMILES | hERG current change (%, negative = inhibition) at 1uM [%]
70 | O=C(NCc1ccco1)C1CC(c2ccc(Cl)cc2)=NO1 (stereo not drawn) | 12
71 | Cc1nc2ccccc2c(=O)n1/N=C1\C(=O)N(C)c2ccccc21 | 14.8
72 | CCOc1ccc(N2C(=O)c3cccnc3C2Nc2ccc(OC)cc2)cc1 (stereo not drawn) | 1.01
73 | O=C(Nc1cccc(C(F)(F)F)c1)c1cc2c(=O)c3ccccc3oc2nc1C(F)(F)F | -0.311
74 | COc1cc2c(cc1OC)C1C/C(=N\O)C(CC(C)C)CN1CC2 (stereo not drawn) | 15.2
75 | O=C(Nc1ccc(-n2cc(Cl)cn2)cc1)c1ccncc1 | 11.7
76 | Cn1c(COc2ccccc2)nnc1SCCN1CCOCC1 | 8.68
77 | CCOP(=O)(c1ccccc1)C1(O)CCCCC1 (stereo not drawn) | 2.31
78 | CN(C)C(=O)CSc1nc(SCC(=O)N(C)C)n(-c2ccccc2)n1 | 8.32
79 | CC(C)OCCCn1c(=S)[nH]c2ncccc2c1=O | 18
80 | CC(C)CC(C(=O)NC(C)(C)C)N(Cc1cccs1)C(=O)c1snc(C(N)=O)c1N (stereo not drawn) | 1.03
81 | Cc1cccc(N2CCN(C(=O)c3ccc4c(c3)OCCO4)CC2)c1C | 14
82 | C=CCN(C(=O)COc1ccccc1)c1nnc(-c2ccncc2)s1 | 9.5
83 | CN(C)c1ccc(-c2ccccc2)nn1 | 22.1
84 | O=C(OCC(=O)N1CCOCC1)c1cccc(F)c1 | 17.6
85 | Cc1ccc(C(=O)NC(=O)CSc2nncn2C)cc1 | 8.94
86 | Clc1ccc2[nH]c3c(c2c1)CCc1cn[nH]c1-3 | 1.26
87 | Cl.O=C(OCCN1CCCCC1)c1c[nH]c2ccccc12 | -4.63
88 | CCn1c(O)c(N=NC(=O)Cn2ccc(C(F)(F)F)n2)c2ccccc21 | 1.07
89 | Cc1ncc(CN2CCC(N3CCC(C(=O)N4CCCC4)CC3)CC2)s1 | 8.78
90 | CCOc1ccc(NC(=O)C2CC(=O)N(C)C(=Nc3ccc4c(c3)OCO4)S2)cc1 (stereo not drawn) | 14.6
